The values below come from publication PMC12820563.

The other results are listed elsewhere or left out. The list includes weakly bound sequences.

The assay concerns the target T1, MBP-FoxP3dN (UniProt Q99JB6).
T1 sequence: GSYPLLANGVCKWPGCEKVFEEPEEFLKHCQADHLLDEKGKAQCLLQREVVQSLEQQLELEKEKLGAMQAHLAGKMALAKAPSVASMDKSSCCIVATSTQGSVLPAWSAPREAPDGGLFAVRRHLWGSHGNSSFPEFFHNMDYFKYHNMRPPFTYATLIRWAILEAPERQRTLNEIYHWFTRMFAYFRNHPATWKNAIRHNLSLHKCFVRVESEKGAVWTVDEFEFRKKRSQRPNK
Nature of the assay: PD-seq (MBP pull-down with sequencing). The settings on record: 20 mM Tris-HCl pH 7.5, 100 mM NaCl, 1.5 mM MgCl2, 0.4 uM protein, 0.1 uM dsDNA library, 30 min, room temperature, amylose pull-down; high values mean tight binding; double strand, one strand shown.
With “GATGATTGTTCTCCCAGCTGATGAATTAGGCCAATCGAGTAAACAAATTTTCCTAATCTTTCTGTTCAAGCGCCATCTAC”, the binding signal (RPM ratio (pull-down/input)) was found to be 0.67.
On to “GATGATTGTTCTCCCAGCTGATGAATTATACCCATCGAGTAAACAAATTTTCCTAATCTTTCTGTTCAAGCGCCATCTAC”, for which the binding signal (RPM ratio (pull-down/input)) amounted to 0.433.
Regarding “GATGATTGTTCTCCCAGCTGATGAATTTCATGGGTCGAGTAAACAAATTTTCCTAATCTTTCTGTTCAAGCGCCATCTAC”, the binding signal (RPM ratio (pull-down/input)) was 0.354.
For the sequence “GATGATTGTTCTCCCAGCTGATGAATTGTCCTTGTCGAGTAAACAAATTTTCCTAATCTTTCTGTTCAAGCGCCATCTAC”, the binding signal (RPM ratio (pull-down/input)) stood at 0.388.
With “GATGATTGTTCTCCCAGCTGATGAATTCTCTTTGTCGAGTAAACAAATTTTCCTAATCTTTCTGTTCAAGCGCCATCTAC”, the binding signal (RPM ratio (pull-down/input)) amounted to 0.713.
As for “GATGATTGTTCTCCCAGCTGATGAATTTGTCAGCTCGAGTAAACAAATTTTCCTAATCTTTCTGTTCAAGCGCCATCTAC”, the figure is 2.09.
On to “GATGATTGTTCTCCCAGCTGATGAATTCTTCAGGTCGAGTAAACAAATTTTCCTAATCTTTCTGTTCAAGCGCCATCTAC”, for which the binding signal (RPM ratio (pull-down/input)) came out at 0.209.
Turning to “GATGATTGTTCTCCCAGCTGATGAATTTCCATCCTCGAGTAAACAAATTTTCCTAATCTTTCTGTTCAAGCGCCATCTAC”, the binding signal (RPM ratio (pull-down/input)) came to 0.298.
In the case of “GATGATTGTTCTCCCAGCTGATGAATTGAAAAAATCGAGTAAACAAATTTTCCTAATCTTTCTGTTCAAGCGCCATCTAC”, the binding signal (RPM ratio (pull-down/input)) was 0.17.
As for “GATGATTGTTCTCCCAGCTGATGAATTTGGGTCCTCGAGTAAACAAATTTTCCTAATCTTTCTGTTCAAGCGCCATCTAC”, the figure is 0.676; as for “GATGATTGTTCTCCCAGCTGATGAATTTGCTGCGTCGAGTAAACAAATTTTCCTAATCTTTCTGTTCAAGCGCCATCTAC”, 2.23; as for “GATGATTGTTCTCCCAGCTGATGAATTTCATGTGTCGAGTAAACAAATTTTCCTAATCTTTCTGTTCAAGCGCCATCTAC”, 1.1.
For the sequence “GATGATTGTTCTCCCAGCTGATGAATTCGCGATCTCGAGTAAACAAATTTTCCTAATCTTTCTGTTCAAGCGCCATCTAC”, the binding signal (RPM ratio (pull-down/input)) was 0.437.
In the case of “GATGATTGTTCTCCCAGCTGATGAATTCCTGTTCTCGAGTAAACAAATTTTCCTAATCTTTCTGTTCAAGCGCCATCTAC” it was 0.461; in that of “GATGATTGTTCTCCCAGCTGATGAATTAGGTCATTCGAGTAAACAAATTTTCCTAATCTTTCTGTTCAAGCGCCATCTAC”, 0.683.
In the case of “GATGATTGTTCTCCCAGCTGATGAATTATTGTAATCGAGTAAACAAATTTTCCTAATCTTTCTGTTCAAGCGCCATCTAC” it was 1.63.
In the case of “GATGATTGTTCTCCCAGCTGATGAATTTCATGGATCGAGTAAACAAATTTTCCTAATCTTTCTGTTCAAGCGCCATCTAC” it was 0.283; in that of “GATGATTGTTCTCCCAGCTGATGAATTTATCTACTCGAGTAAACAAATTTTCCTAATCTTTCTGTTCAAGCGCCATCTAC”, 1.38; in that of “GATGATTGTTCTCCCAGCTGATGAATTCCGAAGTTCGAGTAAACAAATTTTCCTAATCTTTCTGTTCAAGCGCCATCTAC”, 0.278.
Consider “GATGATTGTTCTCCCAGCTGATGAATTTTTCGGGTCGAGTAAACAAATTTTCCTAATCTTTCTGTTCAAGCGCCATCTAC”, for which the binding signal (RPM ratio (pull-down/input)) stood at 0.184.
As for “GATGATTGTTCTCCCAGCTGATGAATTGGGAATCTCGAGTAAACAAATTTTCCTAATCTTTCTGTTCAAGCGCCATCTAC”, the figure is 1.41; as for “GATGATTGTTCTCCCAGCTGATGAATTTTGCCTGTCGAGTAAACAAATTTTCCTAATCTTTCTGTTCAAGCGCCATCTAC”, 5.62.
In the case of “GATGATTGTTCTCCCAGCTGATGAATTACAAGGTTCGAGTAAACAAATTTTCCTAATCTTTCTGTTCAAGCGCCATCTAC” it was 0.394.
Consider “GATGATTGTTCTCCCAGCTGATGAATTTTCGCTTTCGAGTAAACAAATTTTCCTAATCTTTCTGTTCAAGCGCCATCTAC”, for which the binding signal (RPM ratio (pull-down/input)) worked out at 0.813.
As for “GATGATTGTTCTCCCAGCTGATGAATTTTAATGCTCGAGTAAACAAATTTTCCTAATCTTTCTGTTCAAGCGCCATCTAC”, the figure is 0.682.
As for “GATGATTGTTCTCCCAGCTGATGAATTATTGGTCTCGAGTAAACAAATTTTCCTAATCTTTCTGTTCAAGCGCCATCTAC”, the figure is 1.2; as for “GATGATTGTTCTCCCAGCTGATGAATTTAGTTGCTCGAGTAAACAAATTTTCCTAATCTTTCTGTTCAAGCGCCATCTAC”, 2.92; as for “GATGATTGTTCTCCCAGCTGATGAATTTCTGGCTTCGAGTAAACAAATTTTCCTAATCTTTCTGTTCAAGCGCCATCTAC”, 0.283.
Regarding “GATGATTGTTCTCCCAGCTGATGAATTCTTTTGGTCGAGTAAACAAATTTTCCTAATCTTTCTGTTCAAGCGCCATCTAC”, the binding signal (RPM ratio (pull-down/input)) came to 0.31.
In the case of “GATGATTGTTCTCCCAGCTGATGAATTCAGACTATCGAGTAAACAAATTTTCCTAATCTTTCTGTTCAAGCGCCATCTAC” it was 0.468.
As to “GATGATTGTTCTCCCAGCTGATGAATTAAGCTCGTCGAGTAAACAAATTTTCCTAATCTTTCTGTTCAAGCGCCATCTAC”, the binding signal (RPM ratio (pull-down/input)) was 0.472.
As for “GATGATTGTTCTCCCAGCTGATGAATTGCGCTACTCGAGTAAACAAATTTTCCTAATCTTTCTGTTCAAGCGCCATCTAC”, the binding signal (RPM ratio (pull-down/input)) is 2.63.
